Laboratory results taken from the supplement of paper PMC10338343.
± gives the standard deviation. This is a selection; strong and weak results do not stand in their true shares.

Each sequence was assayed on MIWI (PIWIL1) piRISC loaded with piRNA #1 (30 nt) (assay: pre-steady-state target cleavage rate (min^-1); MIWI and MILI are mouse PIWI proteins and EfPiwi is from a freshwater sponge; tags in brackets are library labels; higher = faster piRNA-guided slicing of the target). Settings: guide: piRNA #1 5'p-UGAGGUAGUAGGUUGUAUAGUAUCCAGAGG; auxiliary factor: 500 nM mouse GTSF1.
Procedure, shortened: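 Reactions were run for 0–8 or 0–960 min at 33 °C in HEPES–potassium acetate buffer, combining 1 nM active affinity-purified piRISC with one synthetic guide, […] transcribed, DNA-blocked target RNA library and, in some cases, 500 nM GTSF1 partner protein. Sequencing of uncleaved targets followed, with normalisation to depth and to weakly complementary targets. Three trials were pooled, k3 was capped at 0.0001 min^-1, and the pre-steady-state cleavage rate was taken from a burst-and-steady-state fit.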
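Note: 1 nM active piRISC with 0.1 nM target library at 33 °C single turnover.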

Sequence | pre-steady-state target cleavage rate
CCUCUGGAUACUAUACAACCUAAUACCUCA | 1.61 ± 0.1
GGAGUGGAUAGUUUACAACCUACUACCUCA | 0.663 ± 0.04
GGUGUGGAUACUAUACAAGCUACUACCUCA | 0.873 ± 0.035
GGAGACCUAUCUAACAACCUACUACCUCA | 0.00858 ± 0.0041
GGACUGGAUACUAUACAACCUACCACCUCA | 0.387 ± 0.047
GGAGACGAUAUUAUACAACCUACUACCUCA | 1.75 ± 0.1
GGUGAGGAUACUAUACAACCUACUACCUCA | 0.727 ± 0.042
CCUCUGCAUACUAUACAACCUACUACCUGA | 0.984 ± 0.11
GGAGACGAUACUAUUCUACCUACUACCUCA | 0.89 ± 0.079
GGAGACCUUACUAUGCAACCUACUACCUCA | 1.27 ± 0.099
GGAGACCUAUGAUAUGAAGGAACUACCUCA | < 0.0001
GGAGACCAUACUAUACAAGCUACAACCUCA | 0.744 ± 0.052
GGUCUGGAAACUUUACAACCUACUACCUCA | 1.43 ± 0.11
GGAGACGUUACUAAACAACCUACUACCUCA | 1.1 ± 0.095
GGUACUGGAUACUAUACAACCUACUACCUCA | 1.75 ± 0.079
GGAGACCAAACUAUACAACCUACUACGUCA | 0.597 ± 0.058
GGAGACGAUACUAUACAACCUUCAACCUCA | 0.259 ± 0.02
GGAGACCAUACUAUUCAACCUACUUCCUCA | 0.248 ± 0.034
GGAGUGGAUACUAUACUACGUACUACCUCA | 0.382 ± 0.043
GGAGACCUAUGAUAUGUUCCUACUACUUCA | < 0.0001

Sequence | pre-steady-state target cleavage rate
GCUCUGGAUACUAUACAAUCUACUACCUCA | 0.523 ± 0.028
GCUCUGGAUACUAUACAACCUACUUCCUCA | 0.689 ± 0.056
GGAGAGGAUUCUAUUCAACCUACUACCUCA | 1.42 ± 0.087
GGAGUGGAUACUAUACAACCUAUCUACCUCA | 0.267 ± 0.024
GGAGACCAUACUAUACAACCUUCUACCUCA | 0.491 ± 0.031
GGAGACCUAUGAAUACAACCAUGAUGGAGA [g11:g18:cont:t1A] | < 0.0001
GGACUGGAUACUAUACAACCUACAUCCUCA | 0.0189 ± 0.0037
GGAGUGGAAUCUAUACAACCUACUACCUCA | 1.18 ± 0.079
GCUCUGGAUACUAUACAAGGAACUACCUCA | 0.00393 ± 0.0032
GGAGUGGAUACUAUACAACCUACUACCUACA | 0.717 ± 0.044
GGAGACGAUACUAUACUACCUACUAGCUCA | 0.551 ± 0.051
GGAGACCAUAGUAUUCAACCUACUACCUCA | 0.089 ± 0.017
GGAGACGAUACUAAACUACCUACUACCUCA | 1.05 ± 0.083
GGUCUGGAUACUAUACAGCCUACUACCUCA | 0.726 ± 0.032
GCUCUGGAAACUAUACAACCUACAACCUCA | 0.901 ± 0.099
GGAGACCUUACUAUACAAGCUACUACGUCA | 0.761 ± 0.052
GGAGACCAUACUAUACAACCAACUACGUCA | 0.0656 ± 0.007
GCUCUGGAUACUAUACACCCUACUACCUCA | 1.74 ± 0.11
GGAGACCUAUCUAAACAACCUACUAGCUCA | 0.00614 ± 0.0032
GGAGACCUAUCUAUACAACCAACUACCUGA | 0.00805 ± 0.0033
